{"source": "PubChem BioAssay AID588855", "about": "(National Center for Advancing Translational Sciences (NCATS), 2011)", "note": "Among all 410,000 compounds or so, about 5,000 (1.2%) were called active. This list was built around the results that the source calls inconclusive (neither active nor inactive); the mix of calls is not that of the screen. The call rests on the fitted dose curve; in most records, active means well fitted inhibition curve with a large enough effect; inconclusive means small, poorly fitted or top-dose-only effect; inactive means no such curve, though single readings can be large or run the other way. Potencies of inconclusive entries are doubtful fits and often do not repeat. On the % scale 0 is the no-effect control and ±100 the full control effect; potency means the concentration at half of the fitted maximal effect; tags describe the fitted curve by direction and shape."}
{"assay": "qHTS for Inhibitors of TGF-b; further: nearly all actives have a fitted effect of over 65% in size", "conditions": "HepG2 CAGA-GFP TGF-b/SMAD3 reporter, GFP fluorescence, 18 h, TGF-beta stimulated, 500 pg/mL final; series mostly up to 46.1 µM; activity, negative = inhibition: at the top concentration", "procedure,_shortened": "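Read-out: total well GFP (ex488/em500-530) summed from mean per-cell fluorescence. Cells: HEPG2 CAGA-GFP, 1% FBS DMEM, 18 h at 37 degrees C with 500 pg/mL final TGF-beta. Unstimulated wells served as the full-inhibition control; stimulated DMSO wells = 0%.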"}
{"smiles": "Cn1cc(NC(=O)CCl)cn1", "Potency": "inconclusive: 0.708 µM [inhibitor, partial curve, poor fit]"}
{"smiles": "Clc1ccc2c(c1)C(c1ccccc1Cl)=NCc1nnc(N3CCN(CCOc4ccccc4)CC3)n1-2", "Potency": "inconclusive: 35.5 µM [inhibitor, partial curve, poor fit]"}
{"smiles": "Cc1ccccc1Cn1cccc(C(=O)Nc2nc3ccccc3s2)c1=O", "activity, negative = inhibition": "inactive: -1.3%"}
{"smiles": "CCCCCn1c(=O)c(C(=O)NC(C)c2ccccc2)c(O)c2ccccc21", "note": "(configuration not stated)", "activity, negative = inhibition": "inactive: -5.26%"}
{"smiles": "O=c1cc(-c2ccc(O)c(O)c2)oc2cc(O)cc(O)c12", "Potency": "inconclusive: 11.2 µM [inhibitor, partial curve, poor fit]"}
{"smiles": "Clc1ccc(COC(Cn2ccnc2)c2ccc(Cl)cc2Cl)c(Cl)c1", "note": "(configuration not stated)", "Potency": "inconclusive: 35.5 µM [inhibitor, single point]"}
{"smiles": "CCN(CC)c1ccc(CN2CC=C(c3ccc(F)cc3)CC2)cc1", "Potency": "inconclusive: 22.4 µM [inhibitor, single point]"}
{"smiles": "COc1cc2c(cc1OC)C13CCN4CC5=CCOC6CC(=O)N2C1C6C5C3C4", "note": "(configuration not stated) (tested in a mixture with another compound)", "activity, negative = inhibition": "inactive: -15.4%"}
{"smiles": "CC(=O)c1ccc(S(=O)(=O)N2CCN(c3nc4c(C)c(C)ccc4cc3C#N)CC2)cc1", "Potency": "inconclusive: 10 µM [inhibitor, partial curve]"}
{"smiles": "COC(=O)C1=C(c2ccc(F)cc2OCc2ccccc2)C[C@@H]2CC[C@H]1N2C(=O)NCc1ccc([N+](=O)[O-])cc1", "Potency": "inconclusive: 0.355 µM [inhibitor, full curve]"}
{"smiles": "N#Cc1c(Br)n(C2OC(CO)C(O)C2O)c2ncnc(N)c12", "note": "(configuration not stated)", "Potency": "inconclusive: 1.12 µM [inhibitor, partial curve, poor fit]"}
{"smiles": "O=c1c2ccccc2nc(/C=C/c2ccccc2)n1-c1ccccc1O", "activity, negative = inhibition": "inactive: 0%"}
{"smiles": "O=c1[nH]c(=S)[nH]c(O)c1/C=C1/C=c2ccccc2=N1", "Potency": "active: 12.6 µM"}
{"smiles": "O=C(Nc1ccc(Cl)c(C(F)(F)F)c1)C1CCCN(S(=O)(=O)c2cccc3cccnc23)C1", "note": "(configuration not stated)", "Potency": "inconclusive: 3.16 µM [inhibitor, full curve, poor fit]"}
{"smiles": "COC(=O)C1=C(c2ccc3ccccc3c2)C[C@@H]2CC[C@H]1N2C(=O)NC1Cc2ccccc2C1", "Potency": "inconclusive: 11.2 µM [inhibitor, partial curve, poor fit]"}
{"smiles": "COc1cccc(CN2CCCC(C(=O)c3ccccc3SC)C2)c1O", "note": "(configuration not stated)", "Potency": "inconclusive: 12.6 µM [inhibitor, partial curve, poor fit]"}
{"smiles": "O=C1NC(=O)C2(Cc3cc([N+](=O)[O-])ccc3N3CCN(C(=O)c4ccccc4)CC32)C(=O)N1", "note": "(configuration not stated)", "Potency": "inconclusive: 14.1 µM [inhibitor, single point]"}
{"smiles": "O=C1NCN(c2ccccc2)C12CCN(C(c1ccccc1OC(F)(F)F)c1nnnn1-c1ccc3c(c1)OCCO3)CC2", "note": "(configuration not stated)", "Potency": "inconclusive: 25.1 µM [inhibitor, partial curve, poor fit]"}
{"smiles": "NC(N)=N/N=C/c1cn(-c2ccccc2)nc1-c1cccs1", "Potency": "inconclusive: 22.4 µM [inhibitor, single point]"}
{"smiles": "O=C1NC(=O)N(Cc2ccco2)C(=O)/C1=C\\c1ccc(-c2ccc(F)cc2)o1", "Potency": "inconclusive: 2.82 µM [inhibitor, full curve]"}
{"smiles": "COc1cc(C(c2c(C)[nH]n(-c3ccccc3)c2=O)c2c(C)[nH]n(-c3ccccc3)c2=O)cc(OC)c1OC", "Potency": "inconclusive: 35.5 µM [inhibitor, partial curve, poor fit]"}
{"smiles": "O=C1NC(=O)C2(CCN(S(=O)(=O)c3ccccc3)CC2)C(=O)N1", "activity, negative = inhibition": "inactive: 6.68%"}
{"smiles": "ClCCN(CCCl)c1ccc(/C=C/c2sc3ccccc3[n+]2CCCCI)cc1", "Potency": "inconclusive: 35.5 µM [inhibitor, single point]"}
{"smiles": "O=C(Nc1cc(C(F)(F)F)cc(C(F)(F)F)c1)c1cccn(Cc2ccccc2Cl)c1=O", "activity, negative = inhibition": "inactive: -3.24%"}
{"smiles": "COC(=O)[C@@H](Cc1ccccc1)N(Cc1ccccc1)S(=O)(=O)N(Cc1ccccc1)[C@H](Cc1ccccc1)C(=O)OC", "Potency": "inconclusive: 17.8 µM [inhibitor, single point]"}
{"smiles": "CC(=O)C1C(N2CC2)CC2C3CC=C4CC(O)CCC4(C)C3CCC21C", "note": "(configuration not stated)", "activity, negative = inhibition": "inactive: -8.32%"}
{"smiles": "O=P(O)(O)CN1CCNCCN(CP(=O)(O)O)CCNCC1", "activity, negative = inhibition": "inactive: 9.08%"}
{"smiles": "COc1ccc(CN2CCN(C(=O)COc3cccc(C)c3)CC2)c(OC)c1", "Potency": "inconclusive: 3.55 µM [inhibitor, partial curve, poor fit]"}
{"smiles": "O=c1cc(CN2CC=C(c3ccccc3)CC2)c2c(ccc3ccccc32)o1", "activity, negative = inhibition": "inactive: -21.7%"}
{"smiles": "N#CC(C#N)=NNc1ccc(-n2ccc(C(F)(F)F)n2)cc1", "Potency": "active: 3.16 µM"}
{"smiles": "O=C(NCc1cccnc1)Nc1ccccc1Cl", "activity, negative = inhibition": "inactive: -13.6%"}
{"smiles": "CCC(C(=O)Nc1ccccc1C(=O)OC)n1nc(C)c2c(C)n(-c3ccc(C)cc3)nc2c1=O", "note": "(configuration not stated)", "Potency": "active: 11.2 µM"}
{"smiles": "COc1cccc(C(c2nnnn2-c2ccc3c(c2)OCCO3)N2CCC3(CC2)C(=O)NCN3c2ccccc2)c1OC", "note": "(configuration not stated)", "Potency": "inconclusive: 35.5 µM [inhibitor, single point]"}
{"smiles": "CCOC(=O)c1c(C)n(Cc2ccccc2)c2ccc(O)cc12", "Potency": "active: 17.8 µM"}
{"smiles": "CC(C)c1ccc2c(c1)C(N1CCNCC1)Cc1ccc(F)cc1S2", "note": "(configuration not stated)", "Potency": "active: 17.8 µM"}
{"smiles": "COc1cc(C(=O)N2Cc3ccccc3-n3nncc3C2)cc(OC)c1OC", "activity, negative = inhibition": "inactive: -2.26%"}
{"smiles": "CCCCn1c(O)c(C(C)=Nc2ccc(OCC)cc2)c(=O)[nH]c1=O", "activity, negative = inhibition": "inactive: -12.4%"}
{"smiles": "O=C(CCN1CCN(c2ccccc2)CC1)c1ccc(Br)cc1", "Potency": "inconclusive: 22.4 µM [inhibitor, single point]"}
{"smiles": "C/C(CC(c1ccccc1)c1c(O)c2ccccc2oc1=O)=N\\NC(N)=S", "note": "(configuration not stated)", "Potency": "inconclusive: 35.5 µM [inhibitor, single point]"}
{"smiles": "Cc1ccc(Cl)cc1N1CCN(C(=O)C2CCCN(S(=O)(=O)c3ccc(Br)s3)C2)CC1", "note": "(configuration not stated)", "Potency": "inconclusive: 6.31 µM [inhibitor, single point]"}
{"smiles": "O=C(CCC(=O)N1C[C@H]2C[C@@H](C1)c1cccc(=O)n1C2)NCc1cccc(C(F)(F)F)c1", "activity, negative = inhibition": "inactive: 6.96%"}
{"smiles": "CC(=O)c1cn(CCCOc2ccccc2)c2ccccc12", "Potency": "inconclusive: 35.5 µM [inhibitor, single point]"}
